Test results reported in the CheMixHub viscosity set.
“And” between values parts separate entries of the source, which are not always exact repeats. Identical values can stand only once. Further values from the same series stand in other lists.

Assay: xn = mol fraction of the nth substance listed

c1ccncc1 + O
Details	viscosity
298.15 K, 101 kPa, x1 = 0.0118	0.991 mPa·s
298.15 K, 101 kPa, x1 = 0.014	0.934 mPa·s
298.15 K, 101 kPa, x1 = 0.0223	1.1 mPa·s
298.15 K, 101 kPa, x1 = 0.0243	1.11 mPa·s
298.15 K, 101 kPa, x1 = 0.02471	1.135 mPa·s
298.15 K, 101 kPa, x1 = 0.0389	1.262 mPa·s
298.15 K, 101 kPa, x1 = 0.0396	1.246 mPa·s
298.15 K, 101 kPa, x1 = 0.04031	1.27 mPa·s
298.15 K, 101 kPa, x1 = 0.06219	1.403 mPa·s
298.15 K, 101 kPa, x1 = 0.06665	1.485 mPa·s
298.15 K, 101 kPa, x1 = 0.089	1.62 mPa·s
298.15 K, 101 kPa, x1 = 0.09278	1.692 mPa·s
298.15 K, 101 kPa, x1 = 0.1102	1.78 mPa·s
298.15 K, 101 kPa, x1 = 0.1113	1.778 mPa·s
298.15 K, 101 kPa, x1 = 0.1182	1.789 mPa·s
298.15 K, 101 kPa, x1 = 0.121	1.83 mPa·s
298.15 K, 101 kPa, x1 = 0.1327	1.884 mPa·s
298.15 K, 101 kPa, x1 = 0.134	1.863 mPa·s
298.15 K, 101 kPa, x1 = 0.1572	2.005 mPa·s
298.15 K, 101 kPa, x1 = 0.1857	2.051 mPa·s and 2.106 mPa·s
298.15 K, 101 kPa, x1 = 0.2186	2.147 mPa·s
298.15 K, 101 kPa, x1 = 0.2191	2.194 mPa·s
298.15 K, 101 kPa, x1 = 0.2545	2.2 mPa·s
298.15 K, 101 kPa, x1 = 0.2553	2.259 mPa·s
298.15 K, 101 kPa, x1 = 0.2664	2.216 mPa·s
298.15 K, 101 kPa, x1 = 0.2971	2.244 mPa·s
298.15 K, 101 kPa, x1 = 0.3473	2.191 mPa·s
298.15 K, 101 kPa, x1 = 0.406	2.115 mPa·s
298.15 K, 101 kPa, x1 = 0.4736	1.92 mPa·s
298.15 K, 101 kPa, x1 = 0.6246	1.442 mPa·s
298.15 K, 101 kPa, x1 = 0.811	1.081 mPa·s
298.23 K, 101.33 kPa, x1 = 0.0244	1.116 mPa·s
298.23 K, 101.33 kPa, x1 = 0.05159	1.336 mPa·s
298.23 K, 101.33 kPa, x1 = 0.08889	1.598 mPa·s
298.23 K, 101.33 kPa, x1 = 0.1311	1.833 mPa·s
298.23 K, 101.33 kPa, x1 = 0.1829	2.032 mPa·s
298.23 K, 101.33 kPa, x1 = 0.2523	2.187 mPa·s
298.23 K, 101.33 kPa, x1 = 0.3128	2.225 mPa·s
298.23 K, 101.33 kPa, x1 = 0.3507	2.186 mPa·s
298.23 K, 101.33 kPa, x1 = 0.4791	1.894 mPa·s
298.23 K, 101.33 kPa, x1 = 0.6741	1.35 mPa·s
298.23 K, 101.33 kPa, x1 = 0.8126	1.064 mPa·s
298.23 K, 101.33 kPa, x1 = 0.8863	0.79 mPa·s
298.23 K, 101.33 kPa, x1 = 0.9185	0.942 mPa·s
298.23 K, 101.33 kPa, x1 = 0.9575	0.917 mPa·s
298.25 K, 101.33 kPa, x1 = 0.1	1.67 mPa·s
298.25 K, 101.33 kPa, x1 = 0.2	2.09 mPa·s
298.25 K, 101.33 kPa, x1 = 0.25	2.18 mPa·s
298.25 K, 101.33 kPa, x1 = 0.3	2.22 mPa·s
298.25 K, 101.33 kPa, x1 = 0.4	2.07 mPa·s
298.25 K, 101.33 kPa, x1 = 0.6	1.57 mPa·s
298.25 K, 101.33 kPa, x1 = 0.8	1.09 mPa·s
298.25 K, 101.33 kPa, x1 = 0.9	0.95 mPa·s
318.15 K, 101 kPa, x1 = 0.5002	1.17 mPa·s
318.15 K, 101 kPa, x1 = 0.5998	1.029 mPa·s
318.15 K, 101 kPa, x1 = 0.7002	0.9006 mPa·s
318.15 K, 101 kPa, x1 = 0.8004	0.8021 mPa·s
318.15 K, 101 kPa, x1 = 0.8999	0.7334 mPa·s
